± gives the standard error. Variants at the floor of the assay are shown more often than the library holds them.
B1: glmS ribozyme (parent)
chain: AUAAAAGCGCCAGAACUACAGAAAUGUAGUUGACGAGGAGGAGGUUUAUCGAAUUUUCGGCGGAUGCCUCCAAA

Columns and labels:
Settings in all cases: with glucosamine-6-phosphate
glucosamine-6-phosphate [1] = variants of: B1; assay: self-cleavage kobs at 40 uM GlcN6P; higher = faster cleavage; RNA array
Procedure, shortened: (§1)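 Sequenced MiSeq chips were the platform: E. coli RNA polymerase transcribed barcoded ribozyme variants on them in situ, and a hybridised Cy3 probe tracked these at 37 °C. After glucosamine-6-phosphate (40 μM to 10 mM) in HEPES/KCl/Mg(OAc)2 buffer was flowed in, tiles were imaged over ~14 h. Signals normalised to baseline and to non-cleaving reference variants were reduced to per-tile medians and fit to one- or two-exponential decays to obtain kobs. kcat and KM were derived through weighted Michaelis–Menten fits across concentrations.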

glucosamine-6-phosphate [2] = variants of: B1; assay: self-cleavage kobs at 10000 uM GlcN6P; higher = faster cleavage; RNA array
Procedure, shortened: as §1

glucosamine-6-phosphate [3] = variants of: B1; assay: self-cleavage kobs at 2500 uM GlcN6P; higher = faster cleavage; RNA array
Procedure, shortened: as §1

glucosamine-6-phosphate [4] = variants of: B1; assay: self-cleavage kobs at 640 uM GlcN6P; higher = faster cleavage; RNA array
Procedure, shortened: as §1

glucosamine-6-phosphate [5] = variants of: B1; assay: self-cleavage kobs at 160 uM GlcN6P; higher = faster cleavage; RNA array
Procedure, shortened: as §1

For AUAAAAGCGCUAGAACUACAGAAAUGUAGUUUACGAGGAGGAGGUUUAUCGAAUUUUCGGCGGAUGCCUCCAAA, the “self-cleavage kobs at 40 uM GlcN6P” value (glucosamine-6-phosphate [1]) was under 1e-05 s⁻¹ and the “self-cleavage kobs at 10000 uM GlcN6P” value (glucosamine-6-phosphate [2]) was 3.94e-05 ± 5.4e-06 s⁻¹.

With AUAAAAGCGCUAGAACUACAGAAAUGUAGUUUACGAGGAGGAGGUUUAACGAAUUUUCGGCGGAUGCCUCAAAA the “self-cleavage kobs at 40 uM GlcN6P” value (glucosamine-6-phosphate [1]) was under 1e-05 s⁻¹.

AUAAAAGCGCUAGAACUACAGAAAUGUAGUUGACUAGGAGGAGGUUUAUCGAAUUUUCGGCGGAUGCCUCCAAA was tested, and the “self-cleavage kobs at 40 uM GlcN6P” value (glucosamine-6-phosphate [1]) was under 1e-05 s⁻¹, the “self-cleavage kobs at 2500 uM GlcN6P” value (glucosamine-6-phosphate [3]) was under 1e-05 s⁻¹ and the “self-cleavage kobs at 10000 uM GlcN6P” value (glucosamine-6-phosphate [2]) was under 1e-05 s⁻¹.

For AUAAAAGCGCUAGAACUACAGAAAUGUAGUUGACGAGUAGGAGGUUUAUCGAAUUUUCGGCGGAUGCCUCCAAA, the “self-cleavage kobs at 40 uM GlcN6P” value (glucosamine-6-phosphate [1]) was under 1e-05 s⁻¹, the “self-cleavage kobs at 640 uM GlcN6P” value (glucosamine-6-phosphate [4]) was under 1e-05 s⁻¹ and the “self-cleavage kobs at 160 uM GlcN6P” value (glucosamine-6-phosphate [5]) was under 1e-05 s⁻¹. The “self-cleavage kobs at 2500 uM GlcN6P” value (glucosamine-6-phosphate [3]) was under 1e-05 s⁻¹.

With AUAAAAGCGCUAGAACUACAGAAAUGUAGUUGACGAGGAGAAGGUUUAUCGAAUUUUCGGCGGAUGCCUCCAAA the “self-cleavage kobs at 40 uM GlcN6P” value (glucosamine-6-phosphate [1]) was under 1e-05 s⁻¹.

For AUAAAAGCGCUAGAACUACAGAAAUGUAGUUGACGAGGAGGAAGUUUAUCGAAUUUUCGGCGGAUGCCUCCAAA, the “self-cleavage kobs at 40 uM GlcN6P” value (glucosamine-6-phosphate [1]) was under 1e-05 s⁻¹, the “self-cleavage kobs at 640 uM GlcN6P” value (glucosamine-6-phosphate [4]) was under 1e-05 s⁻¹ and the “self-cleavage kobs at 160 uM GlcN6P” value (glucosamine-6-phosphate [5]) was under 1e-05 s⁻¹. For the same variant, the “self-cleavage kobs at 2500 uM GlcN6P” value (glucosamine-6-phosphate [3]) was under 1e-05 s⁻¹.

AUAAAAGCGCUAGAACUACAGAAAUGUAGUUGACGAGGAGGAGAUUUAUCGAAUUUUCAGGGGAUUCCUCCAAA was tested, and the “self-cleavage kobs at 40 uM GlcN6P” value (glucosamine-6-phosphate [1]) was under 1e-05 s⁻¹, the “self-cleavage kobs at 640 uM GlcN6P” value (glucosamine-6-phosphate [4]) was under 1e-05 s⁻¹ and the “self-cleavage kobs at 10000 uM GlcN6P” value (glucosamine-6-phosphate [2]) was under 1e-05 s⁻¹.

For AUAAAAGCGCUAGAACUACAGAAAUGUAGUUGACGAGGAGGAGGUUUAUCGAAUUUUCUCCGGAUGUCUCCAAA, the “self-cleavage kobs at 40 uM GlcN6P” value (glucosamine-6-phosphate [1]) was under 1e-05 s⁻¹, the “self-cleavage kobs at 2500 uM GlcN6P” value (glucosamine-6-phosphate [3]) was under 1e-05 s⁻¹ and the “self-cleavage kobs at 10000 uM GlcN6P” value (glucosamine-6-phosphate [2]) was under 1e-05 s⁻¹.

With AUAAAAGCGCUAGAACUACAGAAAUGUAGUUGACGAGGAGGAGGUUUAUCGAAUUUUCGCCGGAUGCCUCCAAA the “self-cleavage kobs at 40 uM GlcN6P” value (glucosamine-6-phosphate [1]) was under 1e-05 s⁻¹ and the “self-cleavage kobs at 160 uM GlcN6P” value (glucosamine-6-phosphate [5]) was under 1e-05 s⁻¹.

With AUAAAAGCGCUAGAACUACAGAAAUGUAGUUGACGAGGAGGAGGUUUAUCGAAUUUUCGGCGGAUUCCUCCAAA the “self-cleavage kobs at 40 uM GlcN6P” value (glucosamine-6-phosphate [1]) was under 1e-05 s⁻¹ and the “self-cleavage kobs at 2500 uM GlcN6P” value (glucosamine-6-phosphate [3]) was 6.45e-05 ± 1e-05 s⁻¹.

In the case of AUAAAAGCGCUAGAACUACAGAAAUGUAGUUGACGAGGAGGAGGGUUAUCGAAUUUUCGGCGGAUGCGUCCAAA, the “self-cleavage kobs at 40 uM GlcN6P” value (glucosamine-6-phosphate [1]) is reported as under 1e-05 s⁻¹, the “self-cleavage kobs at 640 uM GlcN6P” value (glucosamine-6-phosphate [4]) is reported as under 1e-05 s⁻¹ and the “self-cleavage kobs at 160 uM GlcN6P” value (glucosamine-6-phosphate [5]) is reported as under 1e-05 s⁻¹. The “self-cleavage kobs at 2500 uM GlcN6P” value (glucosamine-6-phosphate [3]) was under 1e-05 s⁻¹ and the “self-cleavage kobs at 10000 uM GlcN6P” value (glucosamine-6-phosphate [2]) was under 1e-05 s⁻¹.

With AUAAAAGCGCUAGAACUACAGAAAUGUAGUUGACGAGGAGGAGGUUAAUCGAAUUCUCGGCGAAUGCCUCCAAA the “self-cleavage kobs at 40 uM GlcN6P” value (glucosamine-6-phosphate [1]) was under 1e-05 s⁻¹.

AUAAAAGCGCUAGAACUACAGAAAUGUAGUUGACGAGGAGGAGGUUUAUCGAAUUAUCGGCGGAUGCCUCCAAA was tested, and the “self-cleavage kobs at 40 uM GlcN6P” value (glucosamine-6-phosphate [1]) was 3.72e-05 ± 1e-05 s⁻¹, the “self-cleavage kobs at 640 uM GlcN6P” value (glucosamine-6-phosphate [4]) was 0.000294 ± 4.5e-05 s⁻¹ and the “self-cleavage kobs at 160 uM GlcN6P” value (glucosamine-6-phosphate [5]) was 0.000103 ± 1.4e-05 s⁻¹. For the same variant, the “self-cleavage kobs at 2500 uM GlcN6P” value (glucosamine-6-phosphate [3]) was 0.000621 ± 7.2e-05 s⁻¹ and the “self-cleavage kobs at 10000 uM GlcN6P” value (glucosamine-6-phosphate [2]) was 0.00125 ± 0.00016 s⁻¹.

AUAAAAGCGCUAGAACUACAGAAAUGUAGUUGACGAGGAGGAGGUUUAUCGAAUUUCCGGCGGAUGCCUCCAAA was tested, and the “self-cleavage kobs at 40 uM GlcN6P” value (glucosamine-6-phosphate [1]) was under 1e-05 s⁻¹, the “self-cleavage kobs at 160 uM GlcN6P” value (glucosamine-6-phosphate [5]) was under 1e-05 s⁻¹ and the “self-cleavage kobs at 10000 uM GlcN6P” value (glucosamine-6-phosphate [2]) was 5.06e-05 ± 1.6e-05 s⁻¹.
